Measurements taken from ChEMBL document CHEMBL4888484, “Replenishing the malaria drug discovery pipeline: Screening and hit evaluation of the MMV Hit Generation Library 1 (HGL1) against asexual blood stage Plasmodium falciparum ,using a nano luciferase reporter read-out” (2022).
The whole screen tested about 150,000 compounds, of which about 540 (0.36%) showed an effect of 50% or more. This is one part of the list.

test system: Plasmodium falciparum; test: Primary screen in NF54 nanoGlo assay, in single point, at 2uM, 72h; a lower Z score goes with more inhibition; assay type: functional, Erythrocyte; settings: timepoint 72 hour

Structure (SMILES) | % Inhibition [%] | Z score
Cc1noc(C2CCN([C@@H](C)c3nnnn3C3CC3)CC2)n1 | -2 | 0.24
O=C(CNC(=O)Nc1ccc(Cl)cc1)N[C@H]1CCS(=O)(=O)C1 | -2 | 0.4
CC[C@H](NCc1c(C)nc2scc(C3CC3)n12)c1ccncc1 | -4 | 0.52
Cc1[nH]nc(C(=O)N2CCCC3(CCCCO3)C2C#N)c1C (stereo not given) | -6 | 0.6
Cc1ncsc1C(=O)NCCc1ccc2c(c1)OCO2 | 2 | -0.41
CCc1cnc(C)nc1-c1cccc(C(=O)N[C@@H](C)c2nnc(N)s2)c1 | -10 | 1.86
COc1ccccc1C(=O)N1CCN2[C@H](CN(C(=O)NCc3ccccc3)CC2(C)C)C1 | 1 | -0.18
NC(=O)c1c(NC(=O)CS(=O)(=O)Cc2ccccc2)sc2c1CCC2 | -10 | 1.94
CN(C)c1nc2c(c(N3CCC(n4c(=O)[nH]c5ccccc54)CC3)n1)CCNC2 | -7 | 1.39
Cc1nc(C)c(C(=O)NC2CC3CCC(C2)S3(=O)=O)s1 (stereo not given) | -5 | 0.6
Cc1cc(N(C)C)nc(CNC(=O)Nc2ccccc2)n1 | 2 | -0.35
CN(c1ccn(C)n1)S(=O)(=O)c1c(Cl)ccc(F)c1F | -5 | 0.89
CC(C)[C@@H]1CN(C(=O)CCc2cnccn2)CCCN1Cc1ccc(F)cc1 | -4 | 0.91
C[C@@H](C(=O)N1CCc2[nH]c(-c3ccccc3)nc2C1)N1CCCCCC1 | -10 | 1.87
CCCc1nc(CN2C(C)CC(C(=O)O)CC2C)cs1 (stereo not given) | -16 | 2.22
CCN(CC)c1ccc(NC2=NS(=O)(=O)C(c3ccccc3)=C2C)c(C)c1 | -6 | 0.84
CN1C(=O)c2ccc(NC(=O)[C@@H]3CCCO3)cc2C1=O | -12 | 1.34
CC(C)(c1ccc(C(=O)N[C@H]2CC[C@@H](CO)C2)cc1)C(F)(F)F | -14 | 1.94
Cc1nc(CC(=O)N2C[C@@H](F)C[C@H]2CNC(=O)N2CCCC2)cs1 | 5 | -0.86
Cc1ccc2c(OC(=O)c3ccnn3C)cccc2n1 | -9 | 1.05
O=C(NOC1CCCCO1)NC1CCOC1c1ccc(Cl)cc1 (stereo not given) | 38 | -1.11
Cc1ccc(-c2c(C)sc3nc(CO)cn23)cc1C | -1 | 0.12

Structure (SMILES) | % Inhibition [%] | Z score
Cc1cccc(C2=CCN(C(=O)NCc3cnnn3C)CC2)c1C | 2 | -0.2
CC(O)C1CCN(C(=O)NCc2ccc3c(c2)CCC3)C1 (stereo not given) | -10 | 1.24
C[C@@H]1CN(C(=O)C(C)(C)N2CCCC2)CC[C@@]1(O)C1CCOCC1 | -6 | 0.98
CN1CCN(C(=O)c2ccccc2N2CCC(NC(=O)CC(C)(C)C)CC2)CC1 | -10 | 0.99
CCC(CC)C(=O)Nc1nc(C)c(C(=O)N(C)C)s1 | -10 | 1.43
CNc1nc(C(=O)NCc2nc(-c3ccc(F)cc3)c[nH]2)cs1 | -15 | 1.53
COc1ccc(C(=O)N(CCC(=O)N2CCNCC2)CCC(C)C)cc1 | 6 | -0.83
CCc1ccc(-c2nccn2C[C@H](C)Oc2cccnc2)nc1 | 1 | -0.15
CC(Cc1cccc(F)c1)C(=O)N1CCC[C@@H]1C(=O)O (stereo not given in full) | 2 | -0.24
CC1CCC(O)CN1C(=O)OC(C)(C)C (stereo not given) | 11 | -1.51
COCCNC(=O)CC[C@]12CC[C@](C)(O)C[C@H]1C(C)(C)C[C@@H]2NC(=O)c1ccc(C(F)(F)F)cc1 | 9 | -1.04
Cc1nc(NC(=O)c2ocnc2C)cc(C2CC2)n1 | -11 | 1.18
O=C(NC[C@H]1CCCCS1(=O)=O)c1ccsc1 | -6 | 1.16
O=C1CC[C@]2(CCCN(c3cc(C(F)(F)F)ccn3)C2)CN1C1CC1 | 4 | -0.61
CC(=O)N1C[C@H]2CN(Cc3ccc(OC(F)(F)F)cc3)CC[C@@]2(c2nc(C)n[nH]2)C1 | 30 | -3.35
Cc1ccc(-c2noc(-c3nnn(Cc4nc(-c5ccc(C)cc5)oc4C)c3C)n2)cc1 | -10 | 1.4
CCc1cc(CC(=O)N2CCC(=O)N(C)c3ccccc32)n(C)n1 | -9 | 1.38
CC(C)(C)OC(=O)N1CC2CC3CC2C1C3NCc1cc[nH]n1 (stereo not given) | -11 | 1.5
CC(C)Cc1noc(CN(C)Cc2noc(C3CC3)n2)n1 | -9 | 1.58
Cc1ccc(CNC(=O)c2nnn3c2CO[C@H](c2ccccc2)C3)o1 | 2 | -0.21
COc1ncc(NC(=O)Nc2ccccc2)c(N2CCCC2)n1 | 25 | -3.84
O=C(c1cncc(-n2ccnn2)c1)N1CCOc2c(Cl)cccc21 | -7 | 1

Structure (SMILES) | % Inhibition [%] | Z score
COc1cc(-c2ccccc2)ccc1CN[C@H]1CCC(=O)NC1 | -9 | 1.35
CC1CN(Cc2ccccc2)CCC1N(C)C(=O)c1ccc(CN)o1 (stereo not given) | 4 | -0.51
O=C(COC(c1ccccc1)c1ccccc1)Nc1ccncc1 | 0 | 0.05
CCOc1ccc(NC(=O)N2CCc3c(c(=O)c4cc(C)cc(C)c4n3C)C2)cc1 | -1 | 0.23
Cc1nnc2ccc(-c3noc(-c4ccsc4)n3)cn12 | -13 | 2.3
Cc1ccc(-c2ccc(Oc3ccc(C(F)(F)F)cn3)c(C)c2)cc1 | -7 | 0.97
C[C@@H](c1ccccc1)N(Cc1cccc(Cl)c1)Cc1nc(C(=O)NCc2ccco2)co1 | 7 | -0.67
CC1CCN(Cc2cc(=O)n3ccccc3n2)CC1 | -4 | 0.52
CCc1nc(CN(C)Cc2csc(C)n2)cs1 | -17 | 2.65
Cc1ccccc1CC1(NC(=O)CCO)CC1 | -2 | 0.28
CC(C)Oc1ccc(C(=O)N2C[C@@H](CN3CCN(C)CC3)[C@@H](CO)C2)cc1 | -9 | 1.35
COc1ccccc1CC(C)CC(=O)N1CCCC1C(=O)O (stereo not given) | 1 | -0.08
CCN1CCN(c2c(CN(CC(C)C)C(=O)c3cccc(OC)c3)c(C)nn2-c2ccccc2)CC1 | -5 | 0.73
O=C(Cn1cnc2c(c1=O)CCCC2)NCc1ccccc1Cl | 0 | 0.03
Brc1cc2c(cc1Cn1cc(-c3cnn(Cc4cc5c(cc4Br)OCCO5)c3)cn1)OCCO2 | -4 | 0.64
O=C(Cc1cccc2ccccc12)N1CCCC[C@@H]1CCN1CCCCC1 | 4 | -0.54
CO[C@H]1CCN(c2cc(C(C)C)nc3ncnn23)CC1(C)C | -2 | 0.37
Cn1cc(S(=O)(=O)N2CCCCCC2)cc1C(=O)NCc1ccccc1Cl | -12 | 1.64
C[C@@H](C(=O)NC(N)=O)N1CCOc2ccccc2C1 | -14 | 2.15
CCOc1cncc(CNc2cnc3[nH]nc(C)c3c2)c1 | -11 | 2.07
CC(=O)c1ccc(C(=O)N2CCC[C@@]3(CCC(=O)N(CCO)C3)C2)cc1 | -4 | 0.7
CS(=O)(=O)c1ccc(NC2CC3CC3C2)nc1 (stereo not given) | 8 | -1.14

Structure (SMILES) | % Inhibition [%] | Z score
O=C(NCc1nc2ccccc2n1C1CC1)c1ccc(O)nc1 | -8 | 0.83
C[C@H](Oc1ccccc1CN1CC(c2ccncc2)C1)C(=O)O | -14 | 1.94
CCCNC(=O)CNC(=O)Cc1ccc(OC)cc1 | -12 | 1.62
CC(C)n1ncc2cc(CNc3ncccc3OC(F)F)cnc21 | -10 | 0.99
Cc1ccc(C)c(CN2CCC3(CCC(=O)N(C4CC4)C3)CC2)c1 | -16 | 2.12
O=C(c1ncnc2ccsc12)N1CCc2nc[nH]c2C1 | -9 | 1.75
CNS(=O)(=O)CC(=O)NC(C)(C)c1ccc(F)cc1Cl | 1 | -0.1
Nc1n[nH]c2c1CCN(Cc1ccccc1)C2 | -15 | 1.97
O=C(Cn1ncnn1)NCC1(c2ccc(Cl)cc2Cl)CCC1 | -13 | 1.34
CS(=O)(=O)CCc1ccc(N[C@H]2CCc3ccc(F)cc32)cc1 | -8 | 1.03
COCCNC(=O)CN1CN(c2ccccc2)C2(CCN(C(=O)C3CCCCC3)CC2)C1=O | -19 | 2.36
NC(=O)C1(NC(=O)c2ccc3nc(-c4ccccc4)cn3c2)CCCC1 | 0 | -0.09
CNC(=NCCOC1CCCCC1C)NC (stereo not given) | -4 | 0.79
CCc1cccc2c(=O)cc(C(C)C)n(Cc3nnc4n3CCOC4)c12 | 2 | -0.23
O=S(=O)(Cc1cccc(F)c1F)N1CCC(c2nnc3n2CCNC3)CC1 | -15 | 1.56
CCCn1nnc2cc(S(=O)(=O)N3CCC(C(=O)Nc4cccc(Cl)c4C)CC3)ccc21 | -1 | 0.1
Cc1noc(C)c1CN(C)C(=O)c1cc(=O)[nH]c2ccc(F)cc12 | -7 | 1.3
Cc1ncc(C(=O)N(CCO)Cc2nccn2C)c(C)n1 | 1 | -0.09
CCN1C(=O)c2cc(S(=O)(=O)Nc3ccc(F)c(C)c3)ccc2Oc2cccnc21 | -10 | 1.79
